Assay results reported in PubChem BioAssay AID686971 (National Center for Advancing Translational Sciences (NCATS), 2013).
Among all 360,000 compounds or so, about 7,500 (2.1%) were called active. This list was built around the results that the source calls inconclusive (neither active nor inactive); the mix of calls is not that of the screen. Calls come from the whole dose curve; as a rule, active = well fitted cell-killing curve with a large enough effect; inconclusive = small, poorly fitted or top-dose-only effect, or effect the other way, or another doubt; inactive = no such curve, though single readings can be large or run the other way. Potencies of inconclusive entries are left out as doubtful fits.

Experiment: qHTS for induction of synthetic lethality in tumor cells producing 2HG: qHTS for the HT-1080-IDH1KD cell line;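 for activity, negative = toxicity: 0% = DMSO wells and -100% = cell-free medium wells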
Conditions: HT-1080 IDH1 knockdown viability, ATP luminescence, 48 h; activity, negative = toxicity: at 46.1 µM (top of the series) unless noted
Summary of the method: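 In this qHTS, HT-1080 cells depleted of IDH1 are exposed for 48 h at 37 °C to compound titrations. Toxicity is scored from CellTiter-Glo luminescence, with DMSO as full viability and medium alone as none.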
Potency is the fitted concentration of half-maximal effect; tags give direction and shape of the fitted curve.

Row | Structure (SMILES) | Potency | activity, negative = toxicity
1 | O=C(Cn1cnc2c(cnn2-c2ccc(F)cc2)c1=O)NCc1ccco1 | active: 18.4 µM | 
2 | CCOC(=O)C1=C(N)N2C(=O)C(C)SC2=C(C(=O)OC)C1c1ccccc1OC (stereo unspecified) |  | inactive: -3.22%
3 | CC(NC(=O)C(=O)NCCC1=CCCCC1)c1ccccc1 (stereo unspecified) | inconclusive [cytotoxic, single point] | 
4 | COc1ccccc1-n1c(CNC(=O)c2ccc(S(=O)(=O)N3CCOCC3)cc2)n[nH]c1=S | inconclusive [rising, single point] | 
5 | Oc1ccccc1Oc1c(F)c(F)nc(N2CCCC2)c1F |  | inactive: 2.71%
6 | O=C(CCn1cnc(-c2ccccc2)c1-c1ccccc1)N/N=C/c1ccccc1O | active: 14.6 µM | 
7 | O=S(=O)(c1ccc(Cl)c(Cl)c1)c1snnc1-c1ccccc1 | active: 8.2 µM | 
8 | COc1ccc(Cl)cc1NC(=O)Nc1ccc(C(=O)N2CCCC2)cc1 | inconclusive [cytotoxic, partial curve] | 
9 | CCN(CCNCC(O)COc1ccccc1C(C)C)c1cccc(C)c1 (stereo unspecified) | active: 18.4 µM | 
10 | CCOC(=O)C1(Cc2ccccc2C(F)(F)F)CCN(Cc2ccc(COC)o2)CC1 | inconclusive [cytotoxic, single point] | 
11 | CCOc1ccccc1NC(=O)CCNC(=O)c1ccco1 |  | inactive: 0.306%
12 | O=C(Nc1cccc(C(F)(F)F)c1)c1ccc(N2CCNCC2)c([N+](=O)[O-])c1 | inconclusive [cytotoxic, single point] | 
13 | COc1ccc(-c2cc(C(=O)N3CCN(c4ccccc4)CC3)c3ccccc3n2)cc1 | active: 1.84 µM | 
14 | Oc1cccc(/C=N/N2CCN(C3c4ccccc4-c4ccccc43)CC2)c1 | active: 23.1 µM | 
15 | CC(=O)Nc1ccc(S(=O)(=O)NCCSCc2ccccc2Cl)cc1 | inconclusive [cytotoxic, partial curve] | 
16 | CCc1nc(Nc2cccc(O)c2)c2oc3ccccc3c2n1 | inconclusive [cytotoxic, single point] | 
17 | CC(C)NC(=O)C1C(c2ccc(C(F)(F)F)cc2)=Nc2ccccc2N1C(=O)c1ccccc1 (stereo unspecified) | inconclusive [cytotoxic, single point] | 
18 | COc1cccc(OC)c1C(=O)Nc1nc(-c2ccccc2)cs1 |  | inactive: 4.91%
19 | CCn1c(CCn2ccnc2C)n[nH]c1=S |  | inactive: 22.5%
20 | CC(C)c1ccc(NC(=S)NCc2cccs2)cc1 | inconclusive [cytotoxic, single point] | 
21 | COc1cccc(/C=N/NC(=S)NCCc2ccccc2)c1 | inconclusive [cytotoxic, single point] | 
22 | Cc1ccc2nsnc2c1NC(=O)c1ccc([N+](=O)[O-])o1 | inconclusive [cytotoxic, single point] | 
23 | COc1ccc(-n2nnnc2C(c2cccc(OC)c2OC)N2CCN(C/C=C/c3ccccc3)CC2)cc1 (stereo unspecified) | inconclusive [cytotoxic, single point] | 
24 | Fc1ccc(N2CCN(Cc3cnc(Cl)s3)CC2)cc1 |  | inactive: -12%

Row | Structure (SMILES) | Potency | activity, negative = toxicity
25 | CS(=O)(=O)c1ccc2nc(NC(=O)c3ccco3)sc2c1 | inconclusive [cytotoxic, single point] | 
26 | COC(=O)c1ccc2c(=O)[nH]c(COC(=O)c3c(-c4ccccc4)noc3C)nc2c1 |  | inactive: -8.22%
27 | CC(=O)c1sc(Nc2ccc(Oc3ccccc3)cc2)nc1C | inconclusive [cytotoxic, single point] | 
28 | O=c1c2c3c(sc2nc(NCCO)n1CCc1ccccc1)CCCCC3 | inconclusive [cytotoxic, single point] | 
29 | O=C(NCC1CCCO1)C(c1cccs1)N(Cc1cccs1)C(=O)c1ccc(-c2ccccc2)[nH]1 (stereo unspecified) |  | inconclusive: -30.1% [cytotoxic]
30 | CN(Cc1cccs1)C(=O)Cn1cnc2ccccc2c1=O |  | inactive: 5.79%
31 | CCCCCC(=O)N[C@@H](c1ccccc1)[C@@H](O)C(=O)O[C@H]1C[C@@]2(O)[C@@H](OC(=O)c3ccccc3)C3[C@](C)(C(=O)[C@H](OC(C)=O)C(=C1C)C2(C)C)[C@@H](O)C[C@H]1OC[C@@]31OC(C)=O (stereo partly specified) | active: 0.0058 µM | 
32 | CCc1c(C(=O)NCCc2ccc(OC)c(OC)c2)[nH]c(C)c1C(C)=O | inconclusive [cytotoxic, single point] | 
33 | CCNC(=O)C1(C)CCN(Cc2cccc(Oc3ccccc3)c2)C1 (stereo unspecified) | inconclusive [cytotoxic, single point] | 
34 | O=C(c1cccs1)C1CCCN(Cc2nc(Cc3ccccc3F)no2)C1 (stereo unspecified) |  | inactive: 0%
35 | O=C1Nc2cc(C(=O)NCCCN3CCCC3)ccc2S/C1=C/c1cccc(Cl)c1 | inconclusive [cytotoxic, single point] | 
36 | COCCCNC(=O)c1ccc(N2CCCC2)c(NS(=O)(=O)c2ccc(C)cc2)c1 | inconclusive [cytotoxic, single point] | 
37 | Cc1ccc(S(=O)(=O)N2CCCCC2)c2nsnc12 |  | inactive: -0.422%
38 | COc1ccc(OC)c(C(=O)CSc2nnc(-c3cccs3)o2)c1 |  | inconclusive: -3.27%
39 | C[C@]12CC[C@@H]3c4ccc(O)cc4CC[C@H]3[C@@H]1CC[C@@H]2O | inconclusive [cytotoxic, partial curve] | 
40 | Fc1ccc(C2c3cccn3CCN2C(=S)Nc2cccc(F)c2)cc1 (stereo unspecified) | inconclusive [cytotoxic, single point] | 
41 | CC(=O)c1c(O)c(C)c(O)c2c1OC1=CC(=O)/C(=C(/C)N)C(=O)C12C (stereo unspecified) | inconclusive [cytotoxic, full curve] | 
42 | COC(=O)/C(C#N)=C/c1c(N2CCN(c3ccccc3)CC2)nc2c(C)cccn2c1=O |  | inactive: -0.844%
43 | COc1cc(/C=N/Nc2nc3ccccc3s2)ccc1O | inconclusive [cytotoxic, single point] | 
44 | Clc1ccc2c(c1)C(C1=NCCN1)c1ccccc1CS2 (stereo unspecified) | active: 1.46 µM | 
45 | Cc1nn(C)c(C(=O)NC(=S)Nc2ccc([N+](=O)[O-])cc2)c1Cl | inconclusive [cytotoxic, single point] | 
46 | COc1ccc(NS(=O)(=O)c2ccc3ccccc3c2)c2ncccc12 | inconclusive [cytotoxic, full curve] | 
47 | O=Cc1[nH]c2ccccc2c1N(C(=O)CCl)c1ccc([N+](=O)[O-])cc1 | inconclusive [cytotoxic, single point] | 
48 | O=C(O)CSc1nc(-c2ccccc2)nc2c1CCCC2 |  | inactive: -4.74%

Row | Structure (SMILES) | Potency | activity, negative = toxicity
49 | Brc1ccc2nc(-c3ccccc3)c(Cc3ccccc3)n2c1 |  | inactive: 18.4%
50 | COc1ccc(-c2cc(-c3ccc(OC)c(OC)c3)n[nH]2)c(O)c1 |  | inconclusive: -30.4% [cytotoxic]
51 | Cc1cccc(-n2ncc3c(N4CCCc5ccccc54)ncnc32)c1 | inconclusive [cytotoxic, single point] | 
52 | C=CCn1cc(C(=O)NCc2ccco2)c(=O)c2cc(S(=O)(=O)N3CCCCCC3)ccc21 | inconclusive [cytotoxic, partial curve] | 
53 | COc1cccc(C(=O)Nc2cc([N+](=O)[O-])ccc2N2CCN(C)CC2)c1 | inconclusive [cytotoxic, partial curve] | 
54 | O=C(NCc1cc(Cl)cc(Cl)c1)c1ccc2nc([C@H]3C[C@H](O)[C@@H](CO)O3)[nH]c2c1 |  | inactive: 10.9%
55 | Cc1ccc([C@H]2C[C@@H](n3cc(C4CC4)nn3)[C@H](O)CN2CC2CCCCC2)cc1 |  | inactive: -5.1%
56 | Cc1ccsc1CN(C)CC(=O)N(C)CC(=O)Nc1c(Cl)cccc1Cl |  | inactive: 5.18%
57 | COc1ccc(NCc2nc3ccccc3n2CCOc2ccc(C)cc2)cc1 | inconclusive [cytotoxic, single point] | 
58 | COc1ccc(C(=O)/C=C/C(=O)N(Cc2ccc3c(c2)OCO3)C(C(=O)NC2CCCCC2)c2ccncc2)c(O)c1 (stereo unspecified) | inconclusive [cytotoxic, partial curve] | 
59 | COc1ccc(C2=Nc3ccccc3N(C(=O)Cc3cc(OC)cc(OC)c3)C2C(=O)NC(C)(C)C)cc1 (stereo unspecified) |  | inactive: -0.123%
60 | N#Cc1nc(-c2ccco2)oc1NCc1cccnc1 |  | inconclusive: -14.9% [cytotoxic]
61 | NC(=O)COc1ccc(C(=O)/C=C2/C(=O)Nc3ccccc32)cc1 | inconclusive [cytotoxic, partial curve] | 
62 | CC(C)(C)c1ccc(C(O)c2ncc(-c3ccccc3F)[nH]2)cc1 (stereo unspecified) | inconclusive [cytotoxic, single point] | 
63 | CC(C)n1cc(NC(=O)c2cc(-c3ccccc3)on2)cn1 | active: 8.2 µM | 
64 | Cc1nc2ccc(C(=O)NCCCn3ccnc3)cn2c1N(C)CC1CCCCC1 |  | inactive: -29.8%
65 | Cc1cccc(C)c1NC(=O)COC(=O)/C=C/c1ccc(S(=O)(=O)N2CCOCC2)cc1 |  | inactive: 0.561%
66 | CCCOc1ccc(C2C(C(=O)c3cc4ccccc4o3)=C(O)C(=O)N2c2cc(C)on2)cc1OC (stereo unspecified) | inconclusive [cytotoxic, single point] | 
67 | NC(c1csc(Nc2ccc(C(=O)NCCCO)cn2)n1)C1CCCCC1 (stereo unspecified) | inconclusive [cytotoxic, single point] | 
68 | CCOc1ccccc1N(CC(=O)NCC1CCCO1)C(=O)CCC(=O)Nc1nccs1 (stereo unspecified) |  | inactive: -0.12%
69 | COc1ccc(CN(C)c2ncnc3sccc23)c(OC)c1OC | inconclusive [cytotoxic, single point] | 
70 | COC(=O)c1ccc(C)c(NS(=O)(=O)c2ccc(C)c([N+](=O)[O-])c2)c1 | inconclusive [cytotoxic, single point] | 
71 | CCC1(CC)Cc2ccccc2C(C2=C(O)CC(C)(C)CC2=O)=N1 |  | inactive: 13.7%
